Source: US20240374745A1 (AARHUS UNIVERSITET, published 2024)

Target: T1, IL-2Rα-hFc
T1 construct: Whole entry as expressed; also called immobilized IL-2Rα; extracellular region of the IL2 receptor IL-2Rα
Experiment: BLI, immobilized IL-2Rα-hFc

| Binder | binding result | fold increase of the degree of binding (by kobs values) against A2M-IL2 in its native conformation |
| --- | --- | --- |
| A2M-IL2, untreated (native conformation) (other, A2M with wildtype human IL2 ([…], […]) inserted in the ciRBD position; untreated sample; also called A2M ciRBD IL2; control sample) SVSGKPQYMVLVPSLLHTETTEKGCVLLSYLNETVTVSASLESVRGNRSLFTDLEAENDVLHCVAFAVPKSSSNEEVMFLTVQVKGPTQEFKKRTTVMVKNEDSLVFVQTDKSIYKPGQTVKFRVVSMDENFHPLNELIPLVYIQDPKGNRIAQWQSFQLEGGLKQFSFPLSSEPFQGSYKVVVQKKSGGRTEHPFTVEEFVLPKFEVQVTVPKIITILEEEMNVSVCGLYTYGKPVPGHVTVSICRKYSDASDCHGEDSQAFCEKFSGQLNSHGCFYQQVKTKVFQLKRKEYEMKLHTEAQIQEEGTVVELTGRQSSEITRTITKLSFVKVDSHFRQGIPFFGQVRLVDGKGVPIPNKVIFIRGNEANYYSNATTDEHGLVQFSINTTNVMGTSLTVRVNYKDRSPCYGYQWVSEEHEEAHHTAYLVFSPSKSFVHLEPMSHELPCGHTQTVQAHYILNGGTLLGLKKLSFYYLIMAKGGIVRTGTHGLLVKQEDMKGHFSISIPVKSDIAPVARLLIYAVLPTGDVIGDSAKYDVENCLANKVDLSFSPSQSLPASHAHLRVTAAPQSVCALRAVDQSVLLMKPDAELSASSVYNLLPEKDLTGFPGPLNDQDDEDCINRHNVYINGITYTPVSSTNEKDMYSFLEDMGLKAFTNSKIRKPKMCPQLQQYEMHGPEGLRVGFYESDVMGRGHARLVHVEEPHTETVRKYFPETWIWDLVVVNSAGVAEVGVTVPDTITEWKAGAFCLSEDAGLGISSTASLRAFQPFFVELTMPYSVIRGEAFTLKATVLNYLPKCIRVSVQLEASPAFLAVPVEKEQAPHCICANGRQTVSWAVTPKSLGNVNFTVSAEALESQELCGTEVPSVPEHGRKDTVIKPLLVEPEGLEKETTFNSLLCPSGGEVSEELSLKLPPNVVEESARASVSVLGDILGSAMQNTQNLLQMPYGCGEQNMVLFAPNIYVLDYLNETQQLTPEVKSKAIGYLNTGYQRQLNYKHYDGSYSTFGERYGRNQGNTWLTAFVLKTFAQARAYIFIDEAHITQALIWLSQRQKDNGCFRSSGSLLNNAIKGGVEDEVTLSAYITIALLEIPLTVTHPVVRNALFCLESAWKTAQEGDHGSHVYTKALLAYAFALAGNQDKRKEVLKSLNEEAVKKDNSVHWERPQKPKAPVGHFYEPQAPSAEVEMTSYVLLAYLTAQPAPTSEDLTSATNIVKWITKQQNAQGGFSSTQDTVVALHALSKYGAATFTRTGKAAQVTIQSSGTFSSKFQVDNNNRLLLQQVSLPELPGEYSMKVTGEGCVYLQTSLKYNILPEKEEFPFALGVQTLPQTCDEPKAHTSFQISLSVSYTGSRSASNMAIVDVKMVSGFIPLKPTVKMLERSGSGGSGGSGGSGGSGGS[in this place about 150 residues]GSSGGSGGSGGSGGSNHVSRTEVSSNHVLIYLDKVSNQTLSLFFTVLQDVPVRDLKPAIVKVYDYYETDEFAIAEYNAPCSKDLGNA | binds |  |
| A2M-IL2, thermolysin-treated (other, Same chain after thermolysin cleavage of the bait region; also called A2M ciRBD IL2) SVSGKPQYMVLVPSLLHTETTEKGCVLLSYLNETVTVSASLESVRGNRSLFTDLEAENDVLHCVAFAVPKSSSNEEVMFLTVQVKGPTQEFKKRTTVMVKNEDSLVFVQTDKSIYKPGQTVKFRVVSMDENFHPLNELIPLVYIQDPKGNRIAQWQSFQLEGGLKQFSFPLSSEPFQGSYKVVVQKKSGGRTEHPFTVEEFVLPKFEVQVTVPKIITILEEEMNVSVCGLYTYGKPVPGHVTVSICRKYSDASDCHGEDSQAFCEKFSGQLNSHGCFYQQVKTKVFQLKRKEYEMKLHTEAQIQEEGTVVELTGRQSSEITRTITKLSFVKVDSHFRQGIPFFGQVRLVDGKGVPIPNKVIFIRGNEANYYSNATTDEHGLVQFSINTTNVMGTSLTVRVNYKDRSPCYGYQWVSEEHEEAHHTAYLVFSPSKSFVHLEPMSHELPCGHTQTVQAHYILNGGTLLGLKKLSFYYLIMAKGGIVRTGTHGLLVKQEDMKGHFSISIPVKSDIAPVARLLIYAVLPTGDVIGDSAKYDVENCLANKVDLSFSPSQSLPASHAHLRVTAAPQSVCALRAVDQSVLLMKPDAELSASSVYNLLPEKDLTGFPGPLNDQDDEDCINRHNVYINGITYTPVSSTNEKDMYSFLEDMGLKAFTNSKIRKPKMCPQLQQYEMHGPEGLRVGFYESDVMGRGHARLVHVEEPHTETVRKYFPETWIWDLVVVNSAGVAEVGVTVPDTITEWKAGAFCLSEDAGLGISSTASLRAFQPFFVELTMPYSVIRGEAFTLKATVLNYLPKCIRVSVQLEASPAFLAVPVEKEQAPHCICANGRQTVSWAVTPKSLGNVNFTVSAEALESQELCGTEVPSVPEHGRKDTVIKPLLVEPEGLEKETTFNSLLCPSGGEVSEELSLKLPPNVVEESARASVSVLGDILGSAMQNTQNLLQMPYGCGEQNMVLFAPNIYVLDYLNETQQLTPEVKSKAIGYLNTGYQRQLNYKHYDGSYSTFGERYGRNQGNTWLTAFVLKTFAQARAYIFIDEAHITQALIWLSQRQKDNGCFRSSGSLLNNAIKGGVEDEVTLSAYITIALLEIPLTVTHPVVRNALFCLESAWKTAQEGDHGSHVYTKALLAYAFALAGNQDKRKEVLKSLNEEAVKKDNSVHWERPQKPKAPVGHFYEPQAPSAEVEMTSYVLLAYLTAQPAPTSEDLTSATNIVKWITKQQNAQGGFSSTQDTVVALHALSKYGAATFTRTGKAAQVTIQSSGTFSSKFQVDNNNRLLLQQVSLPELPGEYSMKVTGEGCVYLQTSLKYNILPEKEEFPFALGVQTLPQTCDEPKAHTSFQISLSVSYTGSRSASNMAIVDVKMVSGFIPLKPTVKMLERSGSGGSGGSGGSGGSGGS[in this place about 150 residues]GSSGGSGGSGGSGGSNHVSRTEVSSNHVLIYLDKVSNQTLSLFFTVLQDVPVRDLKPAIVKVYDYYETDEFAIAEYNAPCSKDLGNA | binds |  |
| A2M-IL2, methylamine-treated (other, thiol ester aminolysed with methylamine (position not given), Same chain after methylamine treatment; also called A2M ciRBD IL2) SVSGKPQYMVLVPSLLHTETTEKGCVLLSYLNETVTVSASLESVRGNRSLFTDLEAENDVLHCVAFAVPKSSSNEEVMFLTVQVKGPTQEFKKRTTVMVKNEDSLVFVQTDKSIYKPGQTVKFRVVSMDENFHPLNELIPLVYIQDPKGNRIAQWQSFQLEGGLKQFSFPLSSEPFQGSYKVVVQKKSGGRTEHPFTVEEFVLPKFEVQVTVPKIITILEEEMNVSVCGLYTYGKPVPGHVTVSICRKYSDASDCHGEDSQAFCEKFSGQLNSHGCFYQQVKTKVFQLKRKEYEMKLHTEAQIQEEGTVVELTGRQSSEITRTITKLSFVKVDSHFRQGIPFFGQVRLVDGKGVPIPNKVIFIRGNEANYYSNATTDEHGLVQFSINTTNVMGTSLTVRVNYKDRSPCYGYQWVSEEHEEAHHTAYLVFSPSKSFVHLEPMSHELPCGHTQTVQAHYILNGGTLLGLKKLSFYYLIMAKGGIVRTGTHGLLVKQEDMKGHFSISIPVKSDIAPVARLLIYAVLPTGDVIGDSAKYDVENCLANKVDLSFSPSQSLPASHAHLRVTAAPQSVCALRAVDQSVLLMKPDAELSASSVYNLLPEKDLTGFPGPLNDQDDEDCINRHNVYINGITYTPVSSTNEKDMYSFLEDMGLKAFTNSKIRKPKMCPQLQQYEMHGPEGLRVGFYESDVMGRGHARLVHVEEPHTETVRKYFPETWIWDLVVVNSAGVAEVGVTVPDTITEWKAGAFCLSEDAGLGISSTASLRAFQPFFVELTMPYSVIRGEAFTLKATVLNYLPKCIRVSVQLEASPAFLAVPVEKEQAPHCICANGRQTVSWAVTPKSLGNVNFTVSAEALESQELCGTEVPSVPEHGRKDTVIKPLLVEPEGLEKETTFNSLLCPSGGEVSEELSLKLPPNVVEESARASVSVLGDILGSAMQNTQNLLQMPYGCGEQNMVLFAPNIYVLDYLNETQQLTPEVKSKAIGYLNTGYQRQLNYKHYDGSYSTFGERYGRNQGNTWLTAFVLKTFAQARAYIFIDEAHITQALIWLSQRQKDNGCFRSSGSLLNNAIKGGVEDEVTLSAYITIALLEIPLTVTHPVVRNALFCLESAWKTAQEGDHGSHVYTKALLAYAFALAGNQDKRKEVLKSLNEEAVKKDNSVHWERPQKPKAPVGHFYEPQAPSAEVEMTSYVLLAYLTAQPAPTSEDLTSATNIVKWITKQQNAQGGFSSTQDTVVALHALSKYGAATFTRTGKAAQVTIQSSGTFSSKFQVDNNNRLLLQQVSLPELPGEYSMKVTGEGCVYLQTSLKYNILPEKEEFPFALGVQTLPQTCDEPKAHTSFQISLSVSYTGSRSASNMAIVDVKMVSGFIPLKPTVKMLERSGSGGSGGSGGSGGSGGS[in this place about 150 residues]GSSGGSGGSGGSGGSNHVSRTEVSSNHVLIYLDKVSNQTLSLFFTVLQDVPVRDLKPAIVKVYDYYETDEFAIAEYNAPCSKDLGNA |  | ~10 fold |
